In PubChem BioAssay (NCATS):
Inconclusive means that the source gave no clear call. Such entries were picked first, then a sample of the others. Potencies of inconclusive entries are doubtful fits and often do not repeat. The source made the active and inactive calls. Calls come from the whole dose curve; as a rule, active = well fitted curve in the direction sought with a large enough effect; inconclusive = small, poorly fitted or top-dose-only effect, or another doubt; inactive = no such curve, though single readings can be large; an effect the other way counts as inactive or inconclusive.

System: not listed separately
Assay: Primary qHTS for inhibitors of nuclear receptor binding SET domain protein 2 (NSD2) in an isogenic RCH-ACV NSD2 p.E1099K mutant (9B) (AID 1645876); note: nearly all actives have a fitted effect of over 70% in size
Conditions: RCH-ACV NSD2 E1099K (9B) viability, CellTiter-Glo, 72 h; activity change, negative = viability loss: at 44.9 µM (top of the series) unless noted; series mostly up to 44.9 µM
% is set by controls: 0 for no effect and ±100 for the full control effect; potency is the fitted concentration of half-maximal effect; tags give direction and shape of the fitted curve.

Compound | Potency | activity change, negative = viability loss
CC(C)=CCC/C(C)=C/CO[C@@H]1O[C@H](CO)[C@@H](OC(=O)/C=C/c2ccc(O)cc2)[C@H](O[C@@H]2O[C@@H](C)[C@H](O)[C@@H](O)[C@H]2O)[C@H]1O | inactive | –
O=S(=O)(Nc1ccc(C(O)(C(F)(F)F)C(F)(F)F)cc1)c1cccs1 | inconclusive: 20.5 µM [inhibitor, single point] | –
OC[C@H]1O[C@@H](OC(CCCCc2ccc(O)cc2)CCc2ccc(O)cc2)[C@H](O[C@@H]2OC[C@](O)(CO)[C@H]2O)[C@@H](O)[C@@H]1O (some centres undefined) | inactive | –
CO[C@H]1O[C@@H]2O[C@]3(C)CC[C@H]4[C@H](C)CC[C@@H]([C@H]1C)[C@@]24OO3 | inconclusive: 10.3 µM [inhibitor, partial curve] | –
O=C(c1ccc2nccnc2c1)N1CCCCC1 | inactive | –
CC(C)(C)NCC(O)COc1cccc2c1CCCC2=O (centres undefined) | inconclusive: 18.3 µM [inhibitor, partial curve, poor fit] | –
O=C(/C=C/N1C[C@@H]2C[C@@H]1CN2c1ccccn1)c1ccccc1O | inactive | –
C/C(=C/CO)CC[C@@H]1[C@@](C)(O)CCC2C(C)(C)CCC[C@]21C (some centres undefined) | inconclusive: 14.2 µM [inhibitor, single point] | –
CC(=O)O[C@@H](CO[C@@H]1O[C@H](CO)[C@H](O)[C@H](O)[C@H]1O)[C@]1(C)C=C2CC[C@@H]3C(C)(C)[C@@H](O)CC[C@@]3(C)[C@@H]2CC1 | – | inconclusive: -32.4% [inhibitor] [at 17.3 µM]
CCCCc1nc(C)c(CC(=S)N(C)C)c(=O)n1Cc1ccc(-c2ccccc2-c2nn[nH]n2)cc1 | inactive | –
O=C(O)Cn1nnc(-c2ccc(CN(CCCCOc3ccc(CN4CCCC4)cc3)CCc3ccccc3)cc2)n1 | inactive | –
CC/C=C/CC1=C(CCCCCCCC(=O)O)CCC1=O | inactive | –

System: not listed separately
Assay: Primary qHTS for inhibitors of nuclear receptor binding SET domain protein 2 (NSD2) in an RCH-ACV wild type WT cells (2C) (AID 1645877); note: nearly all actives have a fitted effect of over 70% in size
Conditions: RCH-ACV (leukaemia line) NSD2 WT (2C) viability, CellTiter-Glo, 72 h; activity change, negative = cell killing: at 44.9 µM (top of the series) unless noted; series mostly up to 44.9 µM

Compound | Potency | activity change, negative = cell killing
C/C1=C\CCC2=C[C@@H](OC2=O)c2c(C)coc2C1 | inconclusive: 18.3 µM [inhibitor, single point] | –
CC[C@@H]1[C@H]2CCCCN3C(=O)C[C@H]([C@@H]4[C@H]1OC(=O)[C@H]4C)[C@@H]23 | inconclusive: 32.5 µM [inhibitor, partial curve, poor fit] | –
C[C@@H]1O[C@@H](O[C@@H]2[C@@H](O[C@@H]3O[C@@H](C)[C@H](O[C@@H]4OC[C@H](O)[C@H](O[C@@H]5OC[C@@H](O)[C@H](O)[C@H]5O)[C@H]4O)[C@@H](O[C@@H]4OC[C@](O)(CO)[C@H]4O)[C@H]3O)[C@H](OC(=O)[C@]34CCC(C)(C)C[C@H]3C3=CCC5[C@@]6(C)C[C@H](O)[C@H](O[C@@H]7O[C@H](CO[C@@H]8OC[C@H](O)[C@H](O)[C@H]8O)[C@@H](O)[C@H](O)[C@H]7O)C(C)(C)C6CC[C@@]5(C)[C@]3(C)C[C@H]4O)OC[C@H]2O)[C@H](O)[C@H](O)[C@H]1O (some centres undefined) | inconclusive: 4.34 µM [inhibitor, single point] | –
Cc1cc(O[C@@H]2O[C@H](COC(=O)CC(=O)O)[C@@H](O)[C@H](O)[C@H]2O)c(C(C)C)cc1O | inactive | –
C=CC(C)(O)CC/C=C(\C)C1CC=C(C)C(=O)O1 (centres undefined) | inactive | –
C=C1CCC2C(C)(C)CC(O)CC2(C)C1CCC(C)CCOC(=O)CCC(=O)O (centres undefined) | – | inconclusive: -33.2% [inhibitor] [at 17.3 µM]
O=S(=O)(Nc1ccc(C(O)(C(F)(F)F)C(F)(F)F)cc1)c1cccs1 | inconclusive: 29 µM [inhibitor, partial curve, poor fit] | –
COc1cc(C)c(C(=O)O[C@@H]2[C@H](O)[C@@H](CO)O[C@H]2n2ccc(=O)[nH]c2=O)c(OC)c1 | inactive | –
CC(=O)C1CCC2(C)C3=C(CCC12C)C1(C)CCC(=O)C(C)(C)C1CC3 (centres undefined) | inconclusive: 20.1 µM [inhibitor, single point] | –
C/C(=C/CO)CC[C@@H]1[C@@](C)(O)CCC2C(C)(C)CCC[C@]21C (some centres undefined) | inactive | –
CC(=O)O[C@@H](CO[C@@H]1O[C@H](CO)[C@H](O)[C@H](O)[C@H]1O)[C@]1(C)C=C2CC[C@@H]3C(C)(C)[C@@H](O)CC[C@@]3(C)[C@@H]2CC1 | inconclusive: 7.96 µM [inhibitor, partial curve, poor fit] | –
Cc1occc(=O)c1O[C@@H]1O[C@H](CO)[C@@H](O)[C@H](O)[C@H]1O | inactive | –
Cc1occc1C(=O)n1ccnc1 | inconclusive: 14.5 µM [inhibitor, partial curve, poor fit] | –

Target: Glutathione peroxidase 1 (Homo sapiens) (UniProt P07203)
Assay: Primary qHTS Assay for Inhibitors of Recombinant Selenoprotein Glutathione Peroxidase 1 (GPX1) (AID 1845191); note: nearly all actives have a fitted effect of over 65% in size
Conditions: recombinant GPX1, GR-coupled NADPH fluorescence, 15 min; series mostly up to 48.8 µM
Method in brief: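 GPX1 10 nM, GR 100 nM, GSH 1 mM, NADPH 0.5 mM, CHP 0.5 mM (final). 30-min cpd preincubation, RT. Ex340/Em450 read t=0, t=15 min.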

Sequence of UniProt P07203 (P07203 whole entry, looked up): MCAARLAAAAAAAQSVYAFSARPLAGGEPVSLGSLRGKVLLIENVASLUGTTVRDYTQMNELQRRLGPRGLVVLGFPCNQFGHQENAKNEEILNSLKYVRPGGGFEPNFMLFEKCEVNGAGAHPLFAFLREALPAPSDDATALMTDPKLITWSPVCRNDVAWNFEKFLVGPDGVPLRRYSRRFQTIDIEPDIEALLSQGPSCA

Compound | Potency
CC[C@@H](O)C[C@@H]1C(C)=C[C@@H]2CCCC[C@@H]2[C@@]1(C)C(=O)O | inactive
O=C(O)c1ccnc2cc(-c3nc4ccccc4n3CCN3CCCCC3)sc12 | inconclusive: 18 µM [inhibitor, single point]
NCc1c[nH]c(=S)n1C1CCc2c(F)cc(F)cc2C1 (centres undefined) | active: 22.7 µM
CCCCc1nc(C)c(CC(=S)N(C)C)c(=O)n1Cc1ccc(-c2ccccc2-c2nn[nH]n2)cc1 | inconclusive: 32.1 µM [inhibitor, single point]
